Laboratory results taken from ChEMBL document CHEMBL4888484, “Replenishing the malaria drug discovery pipeline: Screening and hit evaluation of the MMV Hit Generation Library 1 (HGL1) against asexual blood stage Plasmodium falciparum ,using a nano luciferase reporter read-out” (2022).
Where “and” joins values, the source holds several entries; their conditions need not be identical. Equal entries are not always repeated. Screen size: about 150,000 compounds; about 540 (0.36%) showed an effect of 50% or more. The list shows a part of the results.

System: Plasmodium falciparum
Assay: Primary screen in NF54 nanoGlo assay, in single point, at 2uM, 72h; a lower Z score goes with more inhibition
Format: functional, Erythrocyte
Conditions: timepoint 72 hour

SMILES	% Inhibition [%]	Z score	% Inhibition (2 µM)	Z score (2 µM)
O=C(NCC1(c2ccsc2)CCOCC1)c1ccno1	10	-1.5		
COc1cccc(CNC(=O)c2cn(Cc3cccc(F)c3)nc2OCc2cccc(F)c2)c1	-15	1.73		
Cc1n[nH]c(C)c1-c1ccc(C(=O)N2CCCCC2)cn1	-9	1.53		
Nc1nc2c(s1)CN(c1nccc(N3CCC[C@H](O)C3)n1)CC2	-13	1.9		
CCC1CCCC1NC(C)c1ccccn1 (stereo not drawn)	-3	0.28		
O=C(C1CCC1)N1CCc2sc(S(=O)(=O)NCc3cccc(Cl)c3)cc2C1	5	-0.89		
CCNC(=O)C(C)(C)CN[C@@H](C)c1occc1Br	-18	2.77		
O=C(Nc1ccc2c(c1)OCCO2)C1C2C(=O)N(c3ccccc3F)C[C@]23C=C[C@H]1O3 (stereo partly drawn)			-7% and -13%	1.34 and 1.6
CC(C)Cc1cc(CNC(=O)c2cn3c(n2)CNCC3)no1	-25	2.53		
O=C1CCC(=O)N1Oc1c(F)c(F)c(C(F)(F)F)c(F)c1F	4	-0.46		
O=C1CC2(CCCCCC2)C(=O)N1c1ccccc1Cl	-15	1.4		
Cc1nn(-c2ccccc2)c2sc(-c3noc([C@H]4CC(=O)N(c5ccccc5)C4)n3)cc12	18	-2.05		
C[C@H]1CN(C(=O)CC(C)(C)O)CCN1C(=O)CC(C)(C)O	5	-0.69		
Cc1cccc2c1NC(=O)[C@H]2Cc1cccc(Oc2ccccc2)c1	-15	1.3		
CCNc1ncc(C(=O)N2CC3CC2(C(N)=O)C3)s1	-9	1.67		
O=S(=O)(c1ccc(F)c(F)c1)N(CCN1CCOCC1)[C@H]1CCCNC1	1	-0.19		
CN(C)c1cc(O[C@H]2CCN(C(=O)c3ccnn3C)C2)ncn1	3	-0.33		
Cc1nc(NC(=O)[C@H]2CCCN(C(=O)C(C)(C)C)C2)c(-c2ccccc2)s1	-3	0.51		
C[C@@H](C(N)=O)N1CCC2(CC1)CN(CCOc1ccccc1)C(=O)O2	-15	1.48		
Cn1nncc1C1(O)CN(c2ncc(Cl)s2)C1	-7	1.23		
NC(=O)[C@H]1CCCN(CCNC(=O)c2c[nH]nc2-c2ccccc2)C1	-13	1.39		
O=C(NC1CCN(Cc2ccccc2)CC1)[C@H]1CC(=O)N(c2ccc(F)cc2)C1	-3	0.46		
CCOc1ccccc1NC(=O)N1C[C@H](Oc2cccnc2)C[C@@H]1C(=O)N1CCOCC1	5	-0.64		
Cc1nsc(N(C)C[C@H]2COc3ccccc3O2)c1C#N	-15	1.47		
COc1cccc(COC[C@@H](O)CN(C)c2ccc(C#N)cc2)c1	-11	1.11		
CC(C)N1CCC(CC(=O)N2CCn3nc(Cc4ccccc4)cc3C2)CC1	-4	0.56		
Cc1nc(N2CCCC2)nc(C)c1NC(=O)Nc1ccccc1Cl	-10	1.57		

SMILES	% Inhibition [%]	Z score	% Inhibition (2 µM)	Z score (2 µM)
CCc1cccc(C)c1NC(=O)N(CC)CC(=O)N1CCCCCC1	-12	1.1		
COCc1cc(CN(C)C(=O)[C@H]2CCCN(Cc3ccco3)C2)n[nH]1	-10	0.96		
O=C(c1cc2n(n1)CCN(Cc1cccc(Cl)c1)C2=O)N1CCN(C/C=C/c2ccccc2)CC1	-3	0.53		
C[C@@H](CNS(C)(=O)=O)Oc1ccccc1Br	4	-0.33		
N#Cc1ncn(Cc2ccc(C(=O)Nc3ccccc3)cc2)c1C#N	-14	2.56		
COCC(=O)N(C1CCOCC1)C1CCN(C(=O)c2cc(C)ccc2C)CC1	-13	1.6		
CCOCCNC(=O)Nc1c(C)c(C2CC2)nn1-c1ccccc1	-2	0.22		
CN(Cc1cccc2cnccc12)C1CCN(C(=O)c2ccccc2)CC1	-8	0.99		
O=C(NCc1noc(-c2ccco2)n1)c1cnn[nH]1	-8	1.56		
c1ccc([C@@H]2CN(Cc3ccco3)Cc3ccccc3O2)cc1	7	-0.89		
COC(=O)[C@@H]1C[C@H](O)CN1Cc1ccc(-n2nc(C)cc2C)cc1	-4	0.69		
COC(C1CC1)C(C)NC(=O)C1CCCCC(=O)N1 (stereo not drawn)	-8	1.06		
Cc1nnc2ccc(Br)cc2c1C	-4	0.49		
Cc1cc(S(C)(=O)=O)cc(C(=O)N2CCCc3ccccc3CC2)c1C	-4	0.59		
CN1CCN(C[C@@H]2CN(C(=O)c3ccc(N(C)C)cc3)C[C@@H]2CO)CC1	-17	1.59		
CCCn1ncc(C(=O)NC[C@H]2CCS(=O)(=O)C2)c1C	-7	1.08		
O=C(NC[C@H]1CCCO1)c1ccc2nc(-c3ccccc3)cn2c1	-11	2.21		
C[C@@H](CCn1cccn1)NCc1ccc2c(c1)OCCO2	-9	1.27		
Cc1c(NCc2cccc3c2OC(C)(C)C3)cccc1C(=O)NCCO	2	-0.3		
Cc1cc(CC2CCCC2NCc2scnc2C)n(C)n1 (stereo not drawn)	-6	0.72		
O=C(Cn1cnc(-c2ccccc2)n1)NCc1noc(-c2cccc(Br)c2)n1	-9	1.27		
CC(C)(C)c1cc(Cn2nc3ccncc3c2C(F)(F)F)no1	-18	2.56		
CC1CCC2(CC1)OC[C@@H](C(=O)NCCN1CCCC1)N2C(=O)c1ccccc1F (stereo partly drawn)	-2	0.29		
Cc1cc(N2CCCCCC2)n2nc(Cc3ccccc3)nc2n1	-6	1.09		
C[C@@H]1CN(C(=O)c2cc(F)ccc2Cl)CCN(C2CC2)C1	6	-0.75		
Cc1c(C(=O)N2CCC[C@H](C)C2)cnn1-c1nccc(-c2cccs2)n1	12	-1.53		
CN(C(=O)c1ccc(C(F)(F)F)nc1)[C@H]1CCCC[C@H]1C(F)(F)F	-11	1.38		
